# The supplement of paper PMC8728848
# Some of the results follow.
# B1: PkBDPgamma (Plasmodium knowlesi) (protein)
# chain: SAINQIFLQNNVMDKCNDKRKRGERDWDCPTEKDVCIPDRRYQLCMMEITNLVDTDTHFHSDIIFRKSYSRRRLIYDVGGRGDLLLKKYNNVYSEDLCKDIKWSLQDFGDIIMGTDMEGIGYSLVVQNNLRSIFGTGTSAELDRKKWWNDHKKDIWKAMILSVKEKNRYSAWNCKEDVQIKVEPQIYRWIREWGRDYMSEFREQRRKLNEKCEDKLYYSTMLICTLPPCNNACKSYDEWITGKKKQWDVLSTKFSSVKKAQKIETENIARAYDILKQELNGFNEVTFENEINKRDKLYNYFCVCIVQEARKNTQENVKNVGSGVESKAPSSNPINEAVKSSSGEGKVQEDSAHRSVNEGEGKSSTNEADPGSQPGAAASGGGSGGGTGGGVDLAPQMLRELQETNAALQDVRELLRQQVKEITFLKNTVMECDACGGPLDRNLPPLAPLGPTGGWSHPQFEK
# How the values were obtained:
# Assay in all cases: glycan array binding signal (z-score within array); higher = stronger binding
# Details in all cases: glycan notation: IUPAC condensed, linker removed
# [1] = target: Gal(b1-4)GlcNAc(b1-2)[Gal(b1-4)GlcNAc(b1-6)]Man(a1-6)[Gal(b1-4)GlcNAc(b1-2)Man(a1-3)]Man(b1-4)GlcNAc(b1-4)[Fuc(a1-6)]GlcNAc
# How it was run: (§1)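 Glycan array binding is given as a within-array Z-score, which can be read as non-binding when negative. The arrays, 3228 of them, came from the Consortium for Functional Glycomics database and were retained only where the protein sequence was available. Z-scores were averaged across arrays of the same protein sequence at different concentrations or buffers and across linkers.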
# [2] = target: Gal(b1-4)GlcNAc(b1-2)[Gal(b1-4)GlcNAc(b1-6)]Man(a1-6)[GlcNAc(b1-4)][Gal(b1-4)GlcNAc(b1-2)Man(a1-3)]Man(b1-4)GlcNAc(b1-4)GlcNAc
# How it was run: as §1
# [3] = target: Gal(b1-4)GlcNAc(b1-2)[Gal(b1-4)GlcNAc(b1-6)]Man(a1-6)[GlcNAc(b1-4)][Gal(b1-4)GlcNAc(b1-2)[Gal(b1-4)GlcNAc(b1-4)]Man(a1-3)]Man(b1-4)GlcNAc(b1-4)[Fuc(a1-6)]GlcNAc
# How it was run: as §1
# [4] = target: Gal(b1-4)GlcNAc(b1-3)Gal(b1-3)GalNAc
# How it was run: as §1
# [5] = target: Gal(b1-4)GlcNAc(b1-3)Gal(b1-3)GlcNAc
# How it was run: as §1
# [6] = target: Gal(b1-4)GlcNAc(b1-3)Gal(b1-4)Glc
# How it was run: as §1
# [7] = target: Gal(b1-4)GlcNAc(b1-3)Gal(b1-4)GlcNAc
# How it was run: as §1
# [8] = target: Gal(b1-4)GlcNAc(b1-3)Gal(b1-4)GlcNAc(b1-2)Man(a1-3)[Gal(b1-4)GlcNAc(b1-3)Gal(b1-4)GlcNAc(b1-2)Man(a1-6)]Man(b1-4)GlcNAc(b1-4)GlcNAc
# How it was run: as §1
# [9] = target: Gal(b1-4)GlcNAc(b1-3)Gal(b1-4)GlcNAc(b1-2)Man(a1-3)[Gal(b1-4)GlcNAc(b1-3)Gal(b1-4)GlcNAc(b1-2)Man(a1-6)]Man(b1-4)GlcNAc(b1-4)[Fuc(a1-6)]GlcNAc
# How it was run: as §1
# [10] = target: Gal(b1-4)GlcNAc(b1-3)Gal(b1-4)GlcNAc(b1-2)[Gal(b1-4)GlcNAc(b1-3)Gal(b1-4)GlcNAc(b1-6)]Man(a1-6)[Gal(b1-4)GlcNAc(b1-3)Gal(b1-4)GlcNAc(b1-2)Man(a1-3)]Man(b1-4)GlcNAc(b1-4)GlcNAc
# How it was run: as §1
# [11] = target: Gal(b1-4)GlcNAc(b1-3)Gal(b1-4)GlcNAc(b1-2)[Gal(b1-4)GlcNAc(b1-3)Gal(b1-4)GlcNAc(b1-6)]Man(a1-6)[Gal(b1-4)GlcNAc(b1-3)Gal(b1-4)GlcNAc(b1-2)Man(a1-3)]Man(b1-4)GlcNAc(b1-4)[Fuc(a1-6)]GlcNAc
# How it was run: as §1
# [12] = target: Gal(b1-4)GlcNAc(b1-3)Gal(b1-4)GlcNAc(b1-3)Gal(b1-4)GlcNAc
# How it was run: as §1
# [13] = target: Gal(b1-4)GlcNAc(b1-3)Gal(b1-4)GlcNAc(b1-3)Gal(b1-4)GlcNAc(b1-2)Man(a1-3)[Gal(b1-4)GlcNAc(b1-3)Gal(b1-4)GlcNAc(b1-3)Gal(b1-4)GlcNAc(b1-2)Man(a1-6)]Man(b1-4)GlcNAc(b1-4)GlcNAc
# How it was run: as §1
# [14] = target: Gal(b1-4)GlcNAc(b1-3)Gal(b1-4)GlcNAc(b1-3)Gal(b1-4)GlcNAc(b1-2)Man(a1-3)[Gal(b1-4)GlcNAc(b1-3)Gal(b1-4)GlcNAc(b1-3)Gal(b1-4)GlcNAc(b1-2)Man(a1-6)]Man(b1-4)GlcNAc(b1-4)[Fuc(a1-6)]GlcNAc
# How it was run: as §1
# [15] = target: Gal(b1-4)GlcNAc(b1-3)Gal(b1-4)GlcNAc(b1-3)Gal(b1-4)GlcNAc(b1-2)[Gal(b1-4)GlcNAc(b1-3)Gal(b1-4)GlcNAc(b1-3)Gal(b1-4)GlcNAc(b1-6)]Man(a1-6)[Gal(b1-4)GlcNAc(b1-3)Gal(b1-4)GlcNAc(b1-3)Gal(b1-4)GlcNAc(b1-2)Man(a1-3)]Man(b1-4)GlcNAc(b1-4)[Fuc(a1-6)]GlcNAc
# How it was run: as §1
# [16] = target: Gal(b1-4)GlcNAc(b1-3)Gal(b1-4)GlcNAc(b1-3)Gal(b1-4)GlcNAc(b1-3)Gal(b1-4)GlcNAc(b1-2)Man(a1-3)[Gal(b1-4)GlcNAc(b1-3)Gal(b1-4)GlcNAc(b1-3)Gal(b1-4)GlcNAc(b1-3)Gal(b1-4)GlcNAc(b1-2)Man(a1-6)]Man(b1-4)GlcNAc(b1-4)GlcNAc
# How it was run: as §1
# [17] = target: Gal(b1-4)GlcNAc(b1-3)Gal(b1-4)GlcNAc(b1-3)Gal(b1-4)GlcNAc(b1-3)Gal(b1-4)GlcNAc(b1-2)Man(a1-3)[Gal(b1-4)GlcNAc(b1-3)Gal(b1-4)GlcNAc(b1-3)Gal(b1-4)GlcNAc(b1-3)Gal(b1-4)GlcNAc(b1-2)Man(a1-6)]Man(b1-4)GlcNAc(b1-4)[Fuc(a1-6)]GlcNAc
# How it was run: as §1
# [18] = target: Gal(b1-4)GlcNAc(b1-3)Gal(b1-4)GlcNAc(b1-3)Gal(b1-4)GlcNAc(b1-3)Gal(b1-4)GlcNAc(b1-2)[Gal(b1-4)GlcNAc(b1-3)Gal(b1-4)GlcNAc(b1-3)Gal(b1-4)GlcNAc(b1-3)Gal(b1-4)GlcNAc(b1-6)]Man(a1-6)[Gal(b1-4)GlcNAc(b1-3)Gal(b1-4)GlcNAc(b1-3)Gal(b1-4)GlcNAc(b1-3)Gal(b1-4)GlcNAc(b1-2)Man(a1-3)]Man(b1-4)GlcNAc(b1-4)[Fuc(a1-6)]GlcNAc
# How it was run: as §1
# [19] = target: Gal(b1-4)GlcNAc(b1-3)Gal(b1-4)GlcNAc(b1-3)Gal(b1-4)GlcNAc(b1-3)Gal(b1-4)GlcNAc(b1-3)Gal(b1-4)GlcNAc(b1-2)Man(a1-3)[Gal(b1-4)GlcNAc(b1-3)Gal(b1-4)GlcNAc(b1-3)Gal(b1-4)GlcNAc(b1-3)Gal(b1-4)GlcNAc(b1-3)Gal(b1-4)GlcNAc(b1-2)Man(a1-6)]Man(b1-4)GlcNAc(b1-4)GlcNAc
# How it was run: as §1
# [20] = target: Gal(b1-4)GlcNAc(b1-3)Gal(b1-4)GlcNAc(b1-3)Gal(b1-4)GlcNAc(b1-3)Gal(b1-4)GlcNAc(b1-3)Gal(b1-4)GlcNAc(b1-2)Man(a1-3)[Gal(b1-4)GlcNAc(b1-3)Gal(b1-4)GlcNAc(b1-3)Gal(b1-4)GlcNAc(b1-3)Gal(b1-4)GlcNAc(b1-3)Gal(b1-4)GlcNAc(b1-2)Man(a1-6)]Man(b1-4)GlcNAc(b1-4)[Fuc(a1-6)]GlcNAc
# How it was run: as §1
# [21] = target: Gal(b1-4)GlcNAc(b1-3)Gal(b1-4)GlcNAc(b1-3)Gal(b1-4)GlcNAc(b1-3)Gal(b1-4)GlcNAc(b1-3)Gal(b1-4)GlcNAc(b1-2)[Gal(b1-4)GlcNAc(b1-3)Gal(b1-4)GlcNAc(b1-3)Gal(b1-4)GlcNAc(b1-3)Gal(b1-4)GlcNAc(b1-3)Gal(b1-4)GlcNAc(b1-6)]Man(a1-6)[Gal(b1-4)GlcNAc(b1-3)Gal(b1-4)GlcNAc(b1-3)Gal(b1-4)GlcNAc(b1-3)Gal(b1-4)GlcNAc(b1-3)Gal(b1-4)GlcNAc(b1-2)Man(a1-3)]Man(b1-4)GlcNAc(b1-4)[Fuc(a1-6)]GlcNAc
# How it was run: as §1
# [22] = target: Gal(b1-4)GlcNAc(b1-3)Gal(b1-4)GlcNAc(b1-3)Gal(b1-4)GlcNAc(b1-3)Gal(b1-4)GlcNAc(b1-3)Gal(b1-4)GlcNAc(b1-3)Gal(b1-4)GlcNAc(b1-2)Man(a1-3)[Gal(b1-4)GlcNAc(b1-3)Gal(b1-4)GlcNAc(b1-3)Gal(b1-4)GlcNAc(b1-3)Gal(b1-4)GlcNAc(b1-3)Gal(b1-4)GlcNAc(b1-3)Gal(b1-4)GlcNAc(b1-2)Man(a1-6)]Man(b1-4)GlcNAc(b1-4)GlcNAc
# How it was run: as §1
# [23] = target: Gal(b1-4)GlcNAc(b1-3)Gal(b1-4)GlcNAc(b1-3)GalNAc
# How it was run: as §1
# [24] = target: Gal(b1-4)GlcNAc(b1-3)Gal(b1-4)GlcNAc(b1-3)[Gal(b1-4)GlcNAc(b1-3)Gal(b1-4)GlcNAc(b1-6)]GalNAc
# How it was run: as §1
# [25] = target: Gal(b1-4)GlcNAc(b1-3)Gal(b1-4)GlcNAc(b1-6)[Gal(b1-3)]GalNAc
# How it was run: as §1
# [26] = target: Gal(b1-4)GlcNAc(b1-3)Gal(b1-4)[Fuc(a1-3)]GlcNAc(b1-3)Gal(b1-4)[Fuc(a1-3)]GlcNAc
# How it was run: as §1
# [27] = target: Gal(b1-4)GlcNAc(b1-3)GalNAc
# How it was run: as §1
# [28] = target: Gal(b1-4)GlcNAc(b1-3)[Fuc(a1-3)GlcNAc(b1-6)]Gal(b1-4)Glc
# How it was run: as §1
# [29] = target: Gal(b1-4)GlcNAc(b1-3)[Gal(b1-4)GlcNAc(b1-6)]Gal(b1-4)GlcNAc
# How it was run: as §1
# [30] = target: Gal(b1-4)GlcNAc(b1-3)[GlcNAc(b1-6)]Gal(b1-4)GlcNAc
# How it was run: as §1
# [31] = target: Gal(b1-4)GlcNAc(b1-6)Gal(b1-4)GlcNAc
# How it was run: as §1
# [32] = target: Gal(b1-4)GlcNAc(b1-6)GalNAc
# How it was run: as §1
# [33] = target: Gal(b1-4)GlcNAc(b1-6)[Gal(b1-3)]GalNAc
# How it was run: as §1
# [34] = target: Gal(b1-4)GlcNAc(b1-6)[Gal(b1-4)GlcNAc(b1-3)]GalNAc
# How it was run: as §1
# Gal(b1-4)GlcNAc6P = target: Gal(b1-4)GlcNAc6P
# How it was run: as §1
# Gal(b1-6)Gal = target: Gal(b1-6)Gal
# How it was run: as §1
# Gal3S(b1-3)GalNAc = target: Gal3S(b1-3)GalNAc
# How it was run: as §1
# Gal3S(b1-3)GlcNAc = target: Gal3S(b1-3)GlcNAc
# How it was run: as §1
binder,measurement,setting,value
B1,glycan array binding signal (z-score),[1],0.233
same,glycan array binding signal (z-score),[2],-0.34
same,glycan array binding signal (z-score),[3],0.037
same,glycan array binding signal (z-score),[4],-0.023
same,glycan array binding signal (z-score),[5],-0.263
same,glycan array binding signal (z-score),[6],0.051
same,glycan array binding signal (z-score),[7],-0.281
same,glycan array binding signal (z-score),[8],0.431
same,glycan array binding signal (z-score),[9],0.401
same,glycan array binding signal (z-score),[10],0.897
same,glycan array binding signal (z-score),[11],0.013
same,glycan array binding signal (z-score),[12],-0.217
same,glycan array binding signal (z-score),[13],0.866
same,glycan array binding signal (z-score),[14],0.01
same,glycan array binding signal (z-score),[15],0.679
same,glycan array binding signal (z-score),[16],0.427
same,glycan array binding signal (z-score),[17],0.564
same,glycan array binding signal (z-score),[18],0.169
same,glycan array binding signal (z-score),[19],1.25
same,glycan array binding signal (z-score),[20],-0.118
same,glycan array binding signal (z-score),[21],0.939
same,glycan array binding signal (z-score),[22],0.753
same,glycan array binding signal (z-score),[23],0.087
same,glycan array binding signal (z-score),[24],0.707
same,glycan array binding signal (z-score),[25],-0.24
same,glycan array binding signal (z-score),[26],-0.167
same,glycan array binding signal (z-score),[27],-0.092
same,glycan array binding signal (z-score),[28],-0.221
same,glycan array binding signal (z-score),[29],0.122
same,glycan array binding signal (z-score),[30],0.107
same,glycan array binding signal (z-score),[31],0.108
same,glycan array binding signal (z-score),[32],0.08
same,glycan array binding signal (z-score),[33],-0.298
same,glycan array binding signal (z-score),[34],0.249
same,glycan array binding signal (z-score),Gal(b1-4)GlcNAc6P,0.178
same,glycan array binding signal (z-score),Gal(b1-6)Gal,-0.046
same,glycan array binding signal (z-score),Gal3S(b1-3)GalNAc,0.208
same,glycan array binding signal (z-score),Gal3S(b1-3)GlcNAc,0.068
